# Experimental data taken from PubChem BioAssay AID1347417 (National Center for Advancing Translational Sciences (NCATS), 2020).
# The campaign covered roughly 120,000 compounds. About 5,300 (4.4%) were called active. The shares of active, inactive and inconclusive entries below differ from those in the screen. Calls come from the whole dose curve; as a rule, active = well fitted inhibition curve with a large enough effect; inconclusive = small, poorly fitted or top-dose-only effect; inactive = no such curve, though single readings can be large or run the other way. A potency beside an inconclusive call is a rough fit, not a confirmed value.
# Assay: qHTS Primary assay for Inhibitors of Plasmodium falciparum Dd2 growth in vitro; note: nearly all actives have a fitted effect of over 65% in size
# Settings: P. falciparum Dd2 growth, SYBR Green, 72 h; series mostly up to 28.9 µM
# Outline: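 Readout: SYBR Green fluorescence, 485 nm excitation, 535 nm emission, after ~16 h lysis at 37C. Before that, Dd2-infected red cells (2.5% hematocrit) grew 72 h with compound, 29 uM top final concentration.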
# Potency is the fitted concentration of half-maximal effect; tags give direction and shape of the fitted curve.
row,Structure (SMILES),Potency
1,CCCOc1ccc(CNC(=O)c2ccc3c(c2)N(Cc2ccccc2)CCS3)cc1,"inconclusive: 10 µM [inhibitor, single point]"
2,COc1cccc(CC(=O)N2CCC3(CC2)OC(=O)N(Cc2csc(C)n2)C3(C)c2ccccc2)c1 (stereo unspecified),active: 3.98 µM
3,C[C@@]1(O)CCN(Cc2cc(F)c(F)cc2F)C[C@H]1N1CCCC1,"inconclusive: 1.12 µM [inhibitor, partial curve, poor fit]"
4,Cc1ccc(CSC2=Nc3ccccc3C3=NC(CC(=O)NCc4cccs4)C(=O)N23)c(C)c1 (stereo unspecified),inactive
5,COc1cc(-c2nc3c([nH]2)CCCNC3=O)ccc1O,inactive
6,CCc1ccc(N(CC)C(=O)CCn2cnc3onc(-c4ccc(F)cc4)c3c2=O)cc1,"inconclusive: 11.2 µM [inhibitor, single point]"
7,CCOc1ccc(NC(=O)c2c(NCc3ccc(C)o3)sc3c2CCCCC3)cc1,active: 11.2 µM
8,COc1ccc(N2CCN(C3CCCN(C/C=C/c4ccccc4OC)C3)CC2)cc1 (stereo unspecified),"inconclusive: 14.1 µM [inhibitor, partial curve, poor fit]"
9,CC(C)CCNC(=O)CCC1CCN(C(=O)c2ccccc2F)CC1,inactive
10,COc1cc(OC)c(NC(=O)CN2C(=O)NC3(CCOCC3)C2=O)cc1Cl,"inconclusive: 2.24 µM [inhibitor, partial curve, poor fit]"
11,CCN(CC)c1ccc(C(=O)N2CCCC(n3cc(-c4nc(C(C)C)no4)nn3)C2)cc1 (stereo unspecified),"inconclusive: 1.58 µM [inhibitor, partial curve, poor fit]"
12,O=C1NC(C(=O)NCC2CC2)Cn2cccc21 (stereo unspecified),inactive
13,CCOc1ccc(CC(=O)N2CCC[C@H]2c2nc(-c3ccccc3)no2)cc1OCC,inactive
14,COCc1noc(-c2ccc(N(C)CC3CC(=O)N(C(C)(C)C)C3)nc2)n1 (stereo unspecified),inactive
15,CC(=O)N1Cc2ccccc2CC2(CCN(Cc3ccccc3)C2)C1 (stereo unspecified),"inconclusive: 8.91 µM [inhibitor, partial curve, poor fit]"
16,CCc1nnc(SC(CC)C(=O)Nc2ccc(OC)c(Cl)c2)c2cc3occc3n12 (stereo unspecified),"inconclusive: 8.91 µM [inhibitor, single point]"
17,N#Cc1nc(COc2ccccc2Cl)oc1NCCc1ccccc1,"inconclusive: 11.2 µM [inhibitor, partial curve, poor fit]"
18,CCN(C(=O)c1ccc2c(c1)N(S(C)(=O)=O)CC2)c1ccccc1C,inactive
19,CC(=O)c1ccc(NC(=O)c2cn(-c3ccccc3)nc2-c2ccc(Br)cc2)cc1,"inconclusive: 17.8 µM [inhibitor, single point]"
20,CCN1C(=O)C2CC3(CCN(C(=O)NC)CC3)CN2C1=O (stereo unspecified),inactive
21,COc1cccc(S(=O)(=O)N2CCCC(c3nc(C(C)C)no3)CCNC(=O)CC2)c1 (stereo unspecified),"inconclusive: 7.94 µM [inhibitor, partial curve, poor fit]"
22,O=C(Cc1ccccc1)N(Cc1cccnc1)c1nc2c(Cl)cccc2s1,"inconclusive: 10 µM [inhibitor, single point]"

row,Structure (SMILES),Potency
1,Cc1ccc(-n2cccc2CC(=O)NCc2ccccc2)cc1,"inconclusive: 17.8 µM [inhibitor, single point]"
2,COc1ccc(-c2cc3nc(C)c(CCC(=O)NCc4ccccc4Cl)c(C)n3n2)c(OC)c1,"inconclusive: 10 µM [inhibitor, single point]"
3,CC(Oc1ccccc1)C(=O)N1CCN(C(=O)c2nnn3c2COC(c2ccc(Cl)cc2)C3)CC1 (stereo unspecified),"inconclusive: 3.98 µM [inhibitor, single point]"
4,Cc1ccc(Nc2ccc3cc(S(=O)(=O)N4CCCCC4)ccc3n2)cc1F,"inconclusive: 17.8 µM [inhibitor, single point]"
5,COc1cc(C(=O)NC[C@H]2C[C@@H]3CCN2C[C@@H]3c2cc(-c3ccco3)nc(C)n2)cc(OC)c1OC,"inconclusive: 2 µM [inhibitor, partial curve, poor fit]"
6,COc1ccc(C2Cn3nnc(C(=O)N4CCC(C(=O)NC5CCCCCC5)CC4)c3CO2)cc1 (stereo unspecified),inactive
7,Cc1cc(C(=O)N2CC(N(CC(C)C)C3CCOCC3)C2)nn1C,"inconclusive: 10 µM [inhibitor, single point]"
8,CCC(CC)c1cc([C@H]2CN3CC[C@H]2C[C@@H]3CNC(=O)c2ccccc2)nc(-c2ccncc2)n1,"inconclusive: 1.26 µM [inhibitor, full curve, poor fit]"
9,CC(C)c1ccccc1NC(=O)Cn1cccc1-c1nc(-c2ccccc2)no1,"inconclusive: 0.631 µM [inhibitor, full curve, poor fit]"
10,COc1ccc(-c2ccc3ncn(C)c(=O)c3n2)cc1OC,"inconclusive: 0.316 µM [inhibitor, full curve, poor fit]"
11,COc1ccc(OC)c(CNC(=O)c2ccc(N3CC4CC(C3)[C@H]3CCCC(=O)N3C4)nc2)c1 (stereo partly specified),"inconclusive: 10 µM [inhibitor, single point]"
12,COc1ccccc1CNC(=O)CCCn1c(=O)c2ccccc2n(Cc2ccc(F)cc2)c1=O,"inconclusive: 11.2 µM [inhibitor, single point]"
13,O=C1COc2ccc(-c3ccncc3)nc2CN1Cc1ccc(F)cc1,inactive
14,C[S+](=O)([O-])N1Cc2ccccc2CC2(CCCN2CC2CCCCC2)C1 (stereo unspecified),"inconclusive: 17.8 µM [inhibitor, partial curve, poor fit]"
15,CN(C)c1cc(N2CCCC(NC(=O)NCc3ccccc3)C2)ncn1 (stereo unspecified),"inconclusive: 0.1 µM [inhibitor, full curve, poor fit]"
16,N#Cc1ccc(CN2CCC3(CC2)CC(=O)Nc2ccccc2O3)cc1,inactive
17,c1ccc(-c2noc(-c3cncnc3NC3CCc4ccccc43)n2)cc1 (stereo unspecified),"inconclusive: 7.94 µM [inhibitor, single point]"
18,c1ccc2c(CN3CCC[C@H]3c3nc(-c4ccc(OC5CCCCC5)nc4)no3)c[nH]c2c1,"inconclusive: 11.2 µM [inhibitor, partial curve, poor fit]"
19,CCCNC(=O)[C@@H]1Cc2cn(Cc3ccccn3)c3cccc(c23)[C@H](CC(C)C)N1,"inconclusive: 5.01 µM [inhibitor, partial curve, poor fit]"
20,Cc1ccc(NC(=O)c2oc3ccc(S(=O)(=O)N4CCCCCC4)cc3c2C)c(C)c1,"inconclusive: 3.98 µM [inhibitor, single point]"
21,Cc1ccccc1Cn1cc(-c2ccncc2)cc1C(=O)N(C)Cc1ccco1,active: 3.55 µM
22,COC(=O)CCNC(=O)C1CN(S(=O)(=O)c2cccs2)CC12CCCCC2 (stereo unspecified),"inconclusive: 10 µM [inhibitor, single point]"

row,Structure (SMILES),Potency
1,CCn1c(=O)c2cc(C(=O)NC3CCC(C)CC3)sc2c2ccccc21 (stereo unspecified),"inconclusive: 5.01 µM [inhibitor, partial curve, poor fit]"
2,CCN(Cc1cnn(C)c1)C(=O)c1coc(COc2cccc(C(F)(F)F)c2)n1,inactive
3,C#CCN(C)C(=O)C[C@@H]1c2nc(NC(=O)COC)sc2C[C@@H]2[C@](C)(CO)[C@H](O)CC[C@]21C,inactive
4,COCC(=O)Nc1nc2c(s1)C[C@@H]1[C@](C)(CO)[C@H](O)CC[C@@]1(C)[C@@H]2CC(=O)NCc1ccc(OC)cc1,"inconclusive: 2.82 µM [inhibitor, single point]"
5,Cc1ccccc1NS(=O)(=O)c1ccc2[nH]cc(C(=O)NC3CCCCC3)c(=O)c2c1,"inconclusive: 11.2 µM [inhibitor, single point]"
6,CN(CC(=O)N1CCN(Cc2ccccc2)CC(O)C1)C1CCCC1 (stereo unspecified),active: 8.91 µM
7,CC(C)c1noc(-c2cn(C3CCN(C(=O)COc4ccccc4)C3)nn2)n1 (stereo unspecified),inactive
8,O=C(c1cccs1)N1CC[C@@H]2COCCN(Cc3cccnc3)[C@@H]2C1,inactive
9,O=C(COc1ccccc1)N1[C@H]2CC[C@@H]1c1cnc(-c3ccc(F)cc3)nc1C2,"inconclusive: 8.91 µM [inhibitor, single point]"
10,COc1cccc(NC(=O)N(Cc2c[nH]c3ccccc23)C2CCCCCC2)c1,"inconclusive: 1.78 µM [inhibitor, single point]"
11,CN(C(=O)c1cc2c(Cl)nc3ccccc3c2s1)c1cccc(C(F)(F)F)c1,inactive
12,CCOC(=O)c1c(C)oc2nc(C)nc(N3CCN(c4cc(Cl)ccc4C)CC3)c12,active: 8.91 µM
13,COc1ccc(-c2cc(N3CCC(NC(=O)c4cccnc4)C3)n[nH]2)cc1 (stereo unspecified),inactive
14,COc1cccc(C(=O)N2CCC(C(NC(=O)c3cccc(C)c3)C(=O)N3CCCC3)CC2)c1 (stereo unspecified),inactive
15,O=C(c1ccccc1OCC1CCCN(C2CCCC2)C1)N1CCCC1 (stereo unspecified),inactive
16,COc1ccc(NC(=O)N2Cc3[nH]cnc3C[C@H]2c2nc(-c3ccc(C)cc3)no2)cc1,"inconclusive: 17.8 µM [inhibitor, partial curve, poor fit]"
17,COc1ccc(CCNC(=O)CN2C(=O)C(c3ccccc3)=NC23CCCCC3)cc1OC,inactive
18,COc1ccc(OCCCn2c(C3CC(=O)N(c4ccc(F)cc4)C3)nc3ccccc32)cc1 (stereo unspecified),"inconclusive: 14.1 µM [inhibitor, single point]"
19,O=C(C1CCCC1)N1CCC(Cc2nncn2CC2CC2)C1 (stereo unspecified),inactive
20,Cc1cccc(CC(=O)NCC2Cn3cccc3C(=O)N2C)c1 (stereo unspecified),"inconclusive: 4.47 µM [inhibitor, full curve, poor fit]"
21,Cc1cc(Nc2cc(Cl)ccc2C)n2nc(-c3ccccc3)nc2n1,"inconclusive: 17.8 µM [inhibitor, single point]"
22,Cc1ccccc1-n1nc(C)c(CCC(=O)N(C)C(C)C)c1Oc1ccccc1F,active: 6.31 µM
